Results reported in doi:10.1101/2025.10.31.685692.
Read-outs that look alike come from different tables or passages of the source. No constants are given. Whether binding was seen depends on the method and setting. In cells and extracts the contact can be indirect. Some results given as binding are weak or reduced against the parent protein; the word gives no strength. Where a sequence is shown, tags or fusion partners need not be part of it.

By UniProt entry, the sequences of proteins in these tests, tags left out.
UniProt Q03164: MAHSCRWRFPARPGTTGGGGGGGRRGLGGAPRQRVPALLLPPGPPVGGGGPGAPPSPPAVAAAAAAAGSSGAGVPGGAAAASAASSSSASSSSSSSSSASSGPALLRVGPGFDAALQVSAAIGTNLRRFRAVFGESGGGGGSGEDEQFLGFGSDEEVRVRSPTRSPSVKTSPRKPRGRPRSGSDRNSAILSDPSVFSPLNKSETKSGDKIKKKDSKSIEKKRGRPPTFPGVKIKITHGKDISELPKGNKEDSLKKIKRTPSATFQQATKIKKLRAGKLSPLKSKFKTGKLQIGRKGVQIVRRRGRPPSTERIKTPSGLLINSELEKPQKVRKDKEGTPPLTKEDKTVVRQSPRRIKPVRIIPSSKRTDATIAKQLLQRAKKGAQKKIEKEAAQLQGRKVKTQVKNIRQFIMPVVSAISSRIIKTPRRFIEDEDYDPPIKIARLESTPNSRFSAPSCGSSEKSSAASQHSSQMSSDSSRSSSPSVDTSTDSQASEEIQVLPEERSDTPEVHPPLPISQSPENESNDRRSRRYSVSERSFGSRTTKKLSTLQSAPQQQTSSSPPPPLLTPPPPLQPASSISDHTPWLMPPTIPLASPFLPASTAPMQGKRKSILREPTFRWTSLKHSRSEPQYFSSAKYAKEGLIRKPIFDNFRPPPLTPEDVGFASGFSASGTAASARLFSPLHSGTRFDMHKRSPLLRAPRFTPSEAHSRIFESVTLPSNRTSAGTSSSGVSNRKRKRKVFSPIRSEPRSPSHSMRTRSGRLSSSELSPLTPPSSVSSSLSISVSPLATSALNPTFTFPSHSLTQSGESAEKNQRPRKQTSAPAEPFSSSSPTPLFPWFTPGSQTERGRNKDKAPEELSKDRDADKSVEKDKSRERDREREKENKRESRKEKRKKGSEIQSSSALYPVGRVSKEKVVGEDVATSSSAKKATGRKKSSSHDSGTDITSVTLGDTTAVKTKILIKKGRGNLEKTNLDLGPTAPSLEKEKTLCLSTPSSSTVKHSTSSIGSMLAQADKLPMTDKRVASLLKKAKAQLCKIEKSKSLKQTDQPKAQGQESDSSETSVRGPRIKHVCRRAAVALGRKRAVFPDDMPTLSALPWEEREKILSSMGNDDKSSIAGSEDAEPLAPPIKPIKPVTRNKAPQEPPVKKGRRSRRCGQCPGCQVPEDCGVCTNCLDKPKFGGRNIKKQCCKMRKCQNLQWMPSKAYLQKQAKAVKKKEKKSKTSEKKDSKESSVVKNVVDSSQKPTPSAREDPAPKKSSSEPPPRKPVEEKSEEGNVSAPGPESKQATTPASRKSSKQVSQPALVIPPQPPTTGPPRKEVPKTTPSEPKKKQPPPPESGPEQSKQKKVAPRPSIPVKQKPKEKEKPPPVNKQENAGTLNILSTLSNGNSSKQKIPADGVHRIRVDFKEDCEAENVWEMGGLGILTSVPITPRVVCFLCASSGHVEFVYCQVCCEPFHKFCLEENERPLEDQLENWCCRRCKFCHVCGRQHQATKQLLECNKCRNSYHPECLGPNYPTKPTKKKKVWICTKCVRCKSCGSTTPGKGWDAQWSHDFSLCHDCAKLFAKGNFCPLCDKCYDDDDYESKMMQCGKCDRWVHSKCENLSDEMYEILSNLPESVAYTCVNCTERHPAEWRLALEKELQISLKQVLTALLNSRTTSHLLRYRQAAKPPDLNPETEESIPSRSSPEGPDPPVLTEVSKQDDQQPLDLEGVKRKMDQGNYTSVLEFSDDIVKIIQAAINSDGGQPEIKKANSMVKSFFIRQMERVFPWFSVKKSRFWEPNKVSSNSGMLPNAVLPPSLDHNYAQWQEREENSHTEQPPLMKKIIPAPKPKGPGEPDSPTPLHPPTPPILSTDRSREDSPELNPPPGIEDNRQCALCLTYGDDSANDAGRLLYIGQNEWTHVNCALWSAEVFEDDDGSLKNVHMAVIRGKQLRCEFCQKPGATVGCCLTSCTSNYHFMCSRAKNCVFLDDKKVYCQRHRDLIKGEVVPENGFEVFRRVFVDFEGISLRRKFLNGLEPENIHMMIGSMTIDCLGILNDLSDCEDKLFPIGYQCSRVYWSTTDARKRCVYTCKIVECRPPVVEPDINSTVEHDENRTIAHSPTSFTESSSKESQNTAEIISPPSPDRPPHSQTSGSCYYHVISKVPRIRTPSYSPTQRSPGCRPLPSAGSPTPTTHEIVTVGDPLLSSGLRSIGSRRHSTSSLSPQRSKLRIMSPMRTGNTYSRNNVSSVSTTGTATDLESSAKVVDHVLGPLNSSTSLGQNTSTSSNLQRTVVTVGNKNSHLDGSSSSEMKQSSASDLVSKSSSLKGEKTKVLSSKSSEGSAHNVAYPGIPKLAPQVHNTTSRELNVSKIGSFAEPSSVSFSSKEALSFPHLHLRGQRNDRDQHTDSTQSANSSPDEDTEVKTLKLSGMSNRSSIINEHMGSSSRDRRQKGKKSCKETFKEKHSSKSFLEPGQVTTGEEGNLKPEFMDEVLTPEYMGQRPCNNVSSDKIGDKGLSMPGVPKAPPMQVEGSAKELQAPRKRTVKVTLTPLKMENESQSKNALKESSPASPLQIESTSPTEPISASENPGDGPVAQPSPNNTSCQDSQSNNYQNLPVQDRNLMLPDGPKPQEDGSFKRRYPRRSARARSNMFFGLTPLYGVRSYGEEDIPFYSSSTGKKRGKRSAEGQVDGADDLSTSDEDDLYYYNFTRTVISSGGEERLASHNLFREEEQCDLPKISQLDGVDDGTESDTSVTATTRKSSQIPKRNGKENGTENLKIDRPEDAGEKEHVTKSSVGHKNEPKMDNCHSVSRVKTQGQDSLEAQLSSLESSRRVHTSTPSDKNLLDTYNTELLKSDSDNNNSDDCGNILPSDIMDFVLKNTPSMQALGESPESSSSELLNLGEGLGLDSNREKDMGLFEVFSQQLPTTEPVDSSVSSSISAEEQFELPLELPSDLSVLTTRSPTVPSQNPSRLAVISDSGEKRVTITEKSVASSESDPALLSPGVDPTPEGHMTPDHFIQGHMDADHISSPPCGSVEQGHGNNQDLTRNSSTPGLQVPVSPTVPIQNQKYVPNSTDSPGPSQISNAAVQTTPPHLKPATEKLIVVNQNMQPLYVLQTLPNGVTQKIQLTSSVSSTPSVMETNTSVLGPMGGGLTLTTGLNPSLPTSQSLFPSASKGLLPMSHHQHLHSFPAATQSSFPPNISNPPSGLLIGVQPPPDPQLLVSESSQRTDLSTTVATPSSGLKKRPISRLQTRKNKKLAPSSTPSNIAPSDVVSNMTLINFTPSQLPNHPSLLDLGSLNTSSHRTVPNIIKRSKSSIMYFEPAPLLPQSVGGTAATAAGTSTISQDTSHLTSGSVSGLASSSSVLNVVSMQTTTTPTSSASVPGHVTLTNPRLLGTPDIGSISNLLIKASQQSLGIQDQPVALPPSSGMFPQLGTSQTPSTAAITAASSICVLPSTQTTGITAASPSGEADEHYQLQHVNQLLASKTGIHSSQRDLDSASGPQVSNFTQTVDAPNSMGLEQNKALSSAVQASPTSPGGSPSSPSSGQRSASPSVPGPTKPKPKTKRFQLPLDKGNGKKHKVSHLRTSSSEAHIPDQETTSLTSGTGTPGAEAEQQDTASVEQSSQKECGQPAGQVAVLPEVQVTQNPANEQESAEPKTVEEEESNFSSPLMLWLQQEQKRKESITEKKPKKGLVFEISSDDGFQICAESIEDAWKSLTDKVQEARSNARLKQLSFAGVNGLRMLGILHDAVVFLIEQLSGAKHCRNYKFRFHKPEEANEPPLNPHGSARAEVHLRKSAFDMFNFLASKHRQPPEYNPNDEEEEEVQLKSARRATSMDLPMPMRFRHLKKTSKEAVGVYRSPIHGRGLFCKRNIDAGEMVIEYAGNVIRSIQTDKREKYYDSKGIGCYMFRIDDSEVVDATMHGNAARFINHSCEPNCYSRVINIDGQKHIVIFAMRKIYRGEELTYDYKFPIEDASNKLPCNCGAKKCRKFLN
UniProt Q15291: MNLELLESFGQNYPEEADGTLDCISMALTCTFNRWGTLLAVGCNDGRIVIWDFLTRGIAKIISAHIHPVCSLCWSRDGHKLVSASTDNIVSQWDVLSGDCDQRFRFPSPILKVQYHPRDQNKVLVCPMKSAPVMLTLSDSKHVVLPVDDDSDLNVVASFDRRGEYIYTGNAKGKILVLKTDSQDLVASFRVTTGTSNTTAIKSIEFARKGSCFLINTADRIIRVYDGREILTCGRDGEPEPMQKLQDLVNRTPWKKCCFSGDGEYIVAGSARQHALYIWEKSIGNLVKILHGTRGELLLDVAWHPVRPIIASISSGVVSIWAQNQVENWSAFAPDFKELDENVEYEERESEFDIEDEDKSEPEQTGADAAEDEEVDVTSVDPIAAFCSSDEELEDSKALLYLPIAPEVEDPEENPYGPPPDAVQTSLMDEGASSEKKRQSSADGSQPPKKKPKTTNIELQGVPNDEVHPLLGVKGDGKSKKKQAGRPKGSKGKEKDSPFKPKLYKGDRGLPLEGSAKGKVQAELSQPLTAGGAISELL
UniProt P20226: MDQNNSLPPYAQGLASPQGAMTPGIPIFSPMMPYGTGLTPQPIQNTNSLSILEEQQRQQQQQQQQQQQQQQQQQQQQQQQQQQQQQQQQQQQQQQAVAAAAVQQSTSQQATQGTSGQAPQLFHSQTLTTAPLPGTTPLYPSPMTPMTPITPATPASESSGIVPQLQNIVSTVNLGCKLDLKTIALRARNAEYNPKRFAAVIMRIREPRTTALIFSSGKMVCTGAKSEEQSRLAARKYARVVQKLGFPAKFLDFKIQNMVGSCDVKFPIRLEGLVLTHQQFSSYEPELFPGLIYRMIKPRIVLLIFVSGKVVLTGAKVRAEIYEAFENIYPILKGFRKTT

T1: FLAG-HA-tagged ZMYND11 F291A+W294A (UniProt Q15326)
T1 sequence: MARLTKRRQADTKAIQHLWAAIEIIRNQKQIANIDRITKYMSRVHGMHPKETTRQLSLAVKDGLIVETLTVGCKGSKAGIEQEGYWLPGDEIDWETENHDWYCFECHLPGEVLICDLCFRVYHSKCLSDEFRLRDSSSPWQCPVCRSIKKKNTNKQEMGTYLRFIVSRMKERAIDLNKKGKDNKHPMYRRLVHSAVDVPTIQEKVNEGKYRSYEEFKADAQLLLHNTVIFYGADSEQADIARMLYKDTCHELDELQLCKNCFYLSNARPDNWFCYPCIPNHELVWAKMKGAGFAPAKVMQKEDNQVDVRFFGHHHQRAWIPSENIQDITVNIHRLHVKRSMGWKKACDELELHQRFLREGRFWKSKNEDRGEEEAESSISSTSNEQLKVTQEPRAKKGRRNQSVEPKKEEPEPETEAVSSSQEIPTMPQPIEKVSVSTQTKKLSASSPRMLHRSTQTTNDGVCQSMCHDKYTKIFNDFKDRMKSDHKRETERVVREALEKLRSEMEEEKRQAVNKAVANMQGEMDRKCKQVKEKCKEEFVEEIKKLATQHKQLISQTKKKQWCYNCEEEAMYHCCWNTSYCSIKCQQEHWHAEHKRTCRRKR

T2: FLAG-HA-tagged ZMYND11, wild type, expressed in HEK293T cells (UniProt Q15326)
T2 sequence: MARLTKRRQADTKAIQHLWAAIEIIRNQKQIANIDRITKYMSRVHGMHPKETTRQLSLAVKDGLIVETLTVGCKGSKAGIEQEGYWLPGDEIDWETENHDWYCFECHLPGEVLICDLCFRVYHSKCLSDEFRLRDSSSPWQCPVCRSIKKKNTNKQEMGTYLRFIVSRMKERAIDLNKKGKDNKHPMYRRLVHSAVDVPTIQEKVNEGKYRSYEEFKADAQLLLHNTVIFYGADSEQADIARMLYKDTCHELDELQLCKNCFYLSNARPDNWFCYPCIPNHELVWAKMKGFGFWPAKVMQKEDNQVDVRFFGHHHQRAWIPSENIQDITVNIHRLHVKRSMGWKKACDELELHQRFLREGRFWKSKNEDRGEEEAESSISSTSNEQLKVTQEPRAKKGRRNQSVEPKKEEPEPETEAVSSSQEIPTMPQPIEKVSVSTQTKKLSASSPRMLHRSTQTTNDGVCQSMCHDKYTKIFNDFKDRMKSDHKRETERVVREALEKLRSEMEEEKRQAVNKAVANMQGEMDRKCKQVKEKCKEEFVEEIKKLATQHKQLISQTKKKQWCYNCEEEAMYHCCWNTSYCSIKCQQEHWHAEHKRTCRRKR

T3: FLAG-HA-tagged ZMYND11 (endogenous, Zmynd11-FH knock-in mouse) (mouse (endogenous in brain tissue)) (UniProt Q8R5C8)
T3 sequence: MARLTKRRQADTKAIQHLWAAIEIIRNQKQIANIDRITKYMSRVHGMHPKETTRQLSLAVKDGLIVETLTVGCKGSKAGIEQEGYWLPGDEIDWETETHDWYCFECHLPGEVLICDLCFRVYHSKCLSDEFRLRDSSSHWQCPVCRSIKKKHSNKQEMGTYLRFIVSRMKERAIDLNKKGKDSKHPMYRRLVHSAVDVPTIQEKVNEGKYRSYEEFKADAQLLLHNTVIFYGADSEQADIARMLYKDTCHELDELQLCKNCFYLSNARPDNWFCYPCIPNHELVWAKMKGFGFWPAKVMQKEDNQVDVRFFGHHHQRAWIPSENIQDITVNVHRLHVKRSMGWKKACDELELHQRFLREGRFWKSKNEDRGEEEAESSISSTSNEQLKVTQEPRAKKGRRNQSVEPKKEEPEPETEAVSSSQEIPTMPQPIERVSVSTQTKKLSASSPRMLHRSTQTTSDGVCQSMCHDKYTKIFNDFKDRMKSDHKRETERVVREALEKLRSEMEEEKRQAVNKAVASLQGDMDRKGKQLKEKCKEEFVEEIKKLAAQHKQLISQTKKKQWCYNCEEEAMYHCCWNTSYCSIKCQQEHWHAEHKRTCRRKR


What was measured:
[1] = target: T1, FLAG-HA-tagged ZMYND11 F291A+W294A; experiment: co-IP; FLAG-HA-tagged ZMYND11 constructs expressed in HEK293T; Benzonase-treated nuclear lysates, 250 mM NaCl; anti-FLAG immunoprecipitation; western blot of endogenous partners; also with ethidium bromide (interactions with MLL1 complex members reduced)
[2] = target: T2, FLAG-HA-tagged ZMYND11, wild type, expressed in HEK293T cells; experiment: as above
[3] = target: T3, FLAG-HA-tagged ZMYND11 (endogenous, Zmynd11-FH knock-in mouse) (mouse (endogenous in brain tissue)); experiment: co-IP; anti-FLAG immunoprecipitation from nuclear lysates of brain tissue of Zmynd11^FH/FH and wild-type littermates; western blot
[4] = target: T2, FLAG-HA-tagged ZMYND11, wild type, expressed in HEK293T cells; experiment: co-IP; FLAG-HA-tagged ZMYND11 constructs expressed in HEK293T; Benzonase-treated nuclear lysates, 250 mM NaCl; anti-FLAG immunoprecipitation; western blot of endogenous partners; also with ethidium bromide (interactions with MLL1 complex members reduced); remark: listed apart in the source

Row | binding [2] | Molecule | also measured
1 | binds | KMT2A (MLL1), endogenous in HEK293T cells (from UniProt Q03164 1-3969) | binding [1]: binds
2 | – | KMT2A (MLL1), mouse brain (from UniProt P55200 1-3966) | binding [3]: binds
3 | binds weakly | KMT2B, endogenous in HEK293T cells (from UniProt Q9UMN6 1-2715) | –
4 | binds | RBBP5, endogenous in HEK293T cells (from UniProt Q15291 1-538) | –
5 | no binding | TBP, endogenous in HEK293T cells (from UniProt P20226 1-339) | –
6 | – | MENIN, endogenous in HEK293T cells (protein, UniProt O00255 1-610) MGLKAAQKTLFPLRSIDDVVRLFAAELGREEPDLVLLSLVLGFVEHFLAVNRVIPTNVPELTFQPSPAPDPPGGLTYFPVADLSIIAALYARFTAQIRGAVDLSLYPREGGVSSRELVKKVSDVIWNSLSRSYFKDRAHIQSLFSFITGTKLDSSGVAFAVVGACQALGLRDVHLALSEDHAWVVFGPNGEQTAEVTWHGKGNEDRRGQTVNAGVAERSWLYLKGSYMRCDRKMEVAFMVCAINPSIDLHTDSLELLQLQQKLLWLLYDLGHLERYPMALGNLADLEELEPTPGRPDPLTLYHKGIASAKTYYRDEHIYPYMYLAGYHCRNRNVREALQAWADTATVIQDYNYCREDEEIYKEFFEVANDVIPNLLKEAASLLEAGEERPGEQSQGTQSQGSALQDPECFAHLLRFYDGICKWEEGSPTPVLHVGWATFLVQSLGRFEGQVRQKVRIVSREAEAAEAEEPWGEEAREGRRRGPRRESKPEEPPPPKKPALDKGLGTGQGAVSGPPRKPPGTVAGTARGPEGGSTAQVPAPTASPPPEGPVLTFQSEKMKGMKELLVATKINSSAIKLQLTAQSQVQMKKQKVSTPSDYTLSFLKRQRKGL | binding [4]: binds
